# Results reported in paper PMC10668032.
# The list shows a part of the results. At the low end of the ranking the order means little.
# Target: SIX1-Q177R homeodomain (UniProt Q15475)
# Experiment: universal protein binding microarray
# Details: Universal all-10-mer PBM (8x60K, AMADID 030236), 300 nM GST-tagged protein, Alexa Fluor 488 anti-GST; buffer, salt, pH and temperature not stated; high values mean tight binding; most listed sequences are background and not binding sites; double strand, one strand shown
row,Sequence,binding signal [E-score]
1,AAGGAAGT,-0.104
2,TAATTGCA,-0.0474
3,CTTCACCC,-0.0107
4,CATGCTCC,-0.255
5,TATGCCCA,0.0138
6,AATTAGAG,-0.162
7,ATGGGTAC,0.135
8,GGGGGATA,0.2
9,CCACTAAG,-0.0346
10,GCCAGGCC,-0.144
11,CTGACGGA,-0.15
12,CAGCAGTA,-0.105
13,GGAGCTCC,-0.218
14,ATTGTGGG,0.0619
15,CTGTTATC,-0.207
16,CTTTGTTC,-0.245
17,CACTGTAG,0.116
18,CAGCCTTA,-0.174
19,ACATTCAG,-0.204
20,GTCCTGGA,-0.0908
21,ACATGGCA,-0.134
22,AACAGCTA,-0.0895
23,AAGTGGTC,-0.232
24,CGTTAAAA,-0.291
25,ACGGTGGC,-0.111

row,Sequence,binding signal [E-score]
1,AGAGGCGA,-0.258
2,ATTTTGTC,-0.0516
3,CAGGCTCG,-0.0369
4,CAGAGTTA,0.06
5,AGGGACCT,-0.0258
6,CCTGCACG,0.138
7,ATCGTTGG,0.00283
8,CAATACTA,-0.128
9,GTAGTACA,0.277
10,ATCCCGGA,0.0812
11,TAGCAGCA,-0.097
12,TCTCGACA,0.0685
13,AAGAACCA,-0.262
14,CAGGTTGC,-0.0527
15,AAGTGGCC,-0.25
16,AGACACGG,0.377
17,CCAATATA,-0.235
18,ATAAGCGG,-0.271
19,CGATCGAC,0.0764
20,ATGCATCG,0.0304
21,CCCACTCC,0.159
22,AAGTGAAT,-0.253
23,GCTGAGAA,-0.138
24,ATTGGGGG,0.145
25,AATACTCA,-0.138

row,Sequence,binding signal [E-score]
1,TGCCAACA,-0.0249
2,CAAGGCCA,-0.247
3,ATCCGGGG,0.232
4,GCCCTCTA,-0.106
5,CCATTGGA,-0.0188
6,CTTTGTTA,-0.0715
7,AGGTGGAG,-0.0142
8,GATAATGC,-0.0178
9,GACTCAGA,-0.282
10,AGCTAGAA,-0.102
11,AGTCCCTG,-0.194
12,ACAACATA,-0.0915
13,GTTTGGAA,-0.0805
14,CGGCTGTC,-0.11
15,ATTATGTC,-0.0365
16,CGTACAAC,0.0264
17,GAAGACTA,-0.147
18,ATATGTTG,-0.158
19,CTAAGACC,-0.0715
20,CTATTAAG,-0.0518
21,AGCCAGAG,-0.21
22,AGTAATAA,0.0306
23,ATAGTGCA,-0.0164
24,ACTCCTAG,0.199
25,CCCATGCC,-0.0619

row,Sequence,binding signal [E-score]
1,CACTTTAC,0.221
2,CTTATGGC,-0.16
3,AGATTGTG,-0.167
4,CATGCTAC,0.0461
5,GACAACTC,-0.0251
6,TCACACCA,0.434
7,AACTTCAC,-0.0148
8,CTTACGTC,-0.22
9,ATTCTTTA,-0.0688
10,GTCCTAGA,0.00245
11,AGTCCCGA,-0.0857
12,ATATTAGC,-0.0883
13,CCTAGGGC,-0.171
14,ATCCTTGC,-0.0474
15,GTTCAACA,0.126
16,GTCATGAC,0.0445
17,TATCTGCA,-0.00395
18,CATCAGTA,-0.099
19,ACAACGTG,0.0718
20,CTTCAAGC,-0.24
21,AAAACGGG,0.0427
22,ATGTACAG,-0.0691
23,ACTGTAAA,-0.0356
24,GAGACTGC,-0.0836
25,CTTACAAA,-0.0876

row,Sequence,binding signal [E-score]
1,GCATCGCA,-0.284
2,GCCCTAGC,-0.217
3,AGTTCTGA,-0.184
4,CGCCGTGC,0.188
5,GGCACCGA,0.175
6,GAACACAC,0.319
7,ACATACTA,0.0758
8,AATGGGGT,0.246
9,CGCTTGAA,-0.00516
10,AGCTCGCC,-0.0696
11,CCTTCTAC,-0.0353
12,CGACTTAC,0.0339
13,GCAAACCA,0.0633
14,CAAGACCA,-0.107
15,CAACTTGG,0.0289
16,CTATTAAA,-0.0121
17,ATGTGGAA,-0.0159
18,CCGCCTAG,-0.122
19,GGCACCAA,0.134
20,ATTTAATA,-0.019
21,ATCTGGGA,-0.111
22,CTCATCAC,0.126
23,AAAAGCTA,-0.35
24,CTCAGTAA,-0.231
25,CTTGCGTA,-0.0466

row,Sequence,binding signal [E-score]
1,AGTTAGAT,0.0786
2,GGGCTGAA,0.032
3,AAATCGCA,-0.218
4,CCCTTCGC,0.083
5,ACGGGAAT,0.099
6,GCCGTTGA,-0.143
7,GTGTTGCA,0.385
8,ATCCCTAC,0.0362
9,GTTTGAAA,-0.0581
10,AACGTCAA,-0.309
11,GCAAAGTA,-0.176
12,AGGGCAGG,0.0335
13,CGTGTGAA,0.302
14,ATGTGTAC,0.23
15,CTGAACTC,-0.0496
16,ACGCCGAA,0.105
17,AAAAGAAA,-0.0936
18,GGAGCTAC,-0.0785
19,TAGGTCCA,-0.159
20,TGTCCTAA,0.241
21,AGCAACCG,-0.202
22,AGTAATGC,-0.13
23,CTCGGGTC,0.155
24,GGCAAGGA,-0.0867
25,CCATCAAC,0.0552

row,Sequence,binding signal [E-score]
1,CTCCGATC,0.0599
2,CTCTAATA,0.0502
3,ACCGGCCA,0.00128
4,CGAGTAGC,0.00077
5,CACCATGA,0.289
6,CCCCTGGA,-0.0143
7,ATCCCATA,0.0284
8,GAGATGAA,0.0651
9,AAAGCGCG,0.0238
10,AGATTCAC,-0.095
11,AAAACATG,-0.256
12,GCGTCGGA,-0.0425
13,ACGCTCCC,-0.066
14,ATCGTGTC,0.413
15,TAGACGCA,-0.099
16,AACCACTC,0.0351
17,TAGGAGGA,-0.0612
18,AACGTCAC,-0.0625
19,TACCTTCA,-0.0332
20,CGACTTTA,-0.0785
21,GACCTGAA,-0.0819
22,AAATCCTC,-0.0469
